# Laboratory results published in PubChem BioAssay AID1347073 (National Center for Advancing Translational Sciences (NCATS), 2019).
# Screen size: about 45,000 compounds; about 200 (0.44%) were called active. Not shown: some 7% with an inconclusive outcome. Calls come from the whole dose curve; as a rule, active = well fitted activation curve with a large enough effect; inconclusive = small, poorly fitted or top-dose-only effect; inactive = no such curve, though single readings can be large or run the other way. The list shows a part of the results.
# Experiment: qHTS of TDP-43 Inhibitors: NCGC Sytravon Library Screen; note: 0% is about no effect; nearly all actives have a fitted effect of over 55% in size
# Conditions: yeast TDP-43 toxicity rescue, BacTiter-Glo growth, 24 h; series mostly up to 46.1 µM; growth rescue (activation): at the top concentration
# In short: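 TDP-43-expressing yeast, pregrown in raffinose, seeded at OD600 0.02 in galactose medium with compound for 24 hr at 30 deg C. Growth read by BacTiter-Glo luminescence, so rescue of toxicity appears as activation.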
row,SMILES,growth rescue (activation)
1,CCn1nc(C(C)C(=O)O)c2ccccc2c1=O (stereo unspecified),inactive: 15.3%
2,Cc1ccc(C)c(NC(=S)Nc2cccc3cnccc23)c1,inactive: 5.87%
3,COc1ccc(CNC(=O)CN(C(=O)c2csnn2)c2ccc3c(c2)OCCO3)cc1,inactive: 8.34%
4,CC(=O)N(C)c1ccc(NC(=O)Nc2ccc(C)c(C)c2)cc1,inactive: -7.07%
5,CCOC(=O)C1Nc2ccc(Br)cc2C2C=CCC12 (stereo unspecified),inactive: -3.23%
6,CCCN(CCC)Cc1c(C(=O)N/N=C/c2cccs2)nnn1-c1nonc1N,inactive: -16.2%
7,OCc1cccc(-c2csc(C(O)c3ccccc3)n2)c1 (stereo unspecified),inactive: 29%
8,COc1ccccc1C(=O)Nc1cc(Cl)ccc1O,inactive: 0.129%
9,CNC(=O)/C(C#N)=C/c1ccc(-c2ccccc2[N+](=O)[O-])o1,inactive: 0.847%
10,O=C(NNC(=O)c1ccccc1F)c1ccc(S(=O)(=O)N2CCCC2)cc1,inactive: 17.4%
11,N#Cc1ccc(OCC(O)CN2CCN(C(c3ccccc3)c3ccccc3)CC2)cc1 (stereo unspecified),inactive: 4.36%
12,CC(C)N(C(=O)COC(=O)CNC(=O)c1ccc(Br)cc1)c1ccccc1,inactive: 6.4%
13,CC(C)Cc1nnc(NC(=O)c2cc3c(s2)CCC3)s1,inactive: 2.84%
14,C=CCn1c(SCC(=O)Nc2cccnc2Cl)nnc1-c1ccc(C(C)(C)C)cc1,inactive: 6.09%
15,CSCCC(NC(=O)c1ccccc1Br)C(=O)NCC1CCCCC1 (stereo unspecified),inactive: 6.11%
16,C#CCOn1c(-n2nc(C)cc2C)nc2ccccc2c1=O,inactive: -0.61%
17,OC1CCN(c2ncnc3c2nnn3Cc2c(F)cccc2Cl)CC1,inactive: 25.3%
18,O=C1C2C3C=CC(C2C(=O)N1c1cccc(O)c1)C1C2C(=O)N(c4cccc(O)c4)C(=O)C2C31 (stereo unspecified),inactive: 3.86%
19,COc1ccc(-n2nc(C(=O)NCC(=O)N3CC(C)CC(C)C3)c3ccccc3c2=O)c(OC)c1 (stereo unspecified),inactive: 11%
20,O=C(NCc1ccccc1Cl)c1csc([C@@H]2O[C@H](CO)[C@@H](O)[C@H]2O)n1,inactive: -5.19%
21,N=c1sccn1CC(=O)Nc1ccc(S(N)(=O)=O)cc1,inactive: -24.4%
22,CN(C)c1ccc(CC(=O)N2CCCC(c3cc(C(=O)Nc4ccccc4)no3)C2)cc1 (stereo unspecified),inactive: -3.1%

row,SMILES,growth rescue (activation)
1,C=CCn1cnnc1SCC(=O)N(C1CCCCC1)C1CCS(=O)(=O)C1 (stereo unspecified),inactive: -5.43%
2,Cc1cccc(OCC(=O)Nc2ccc(S(=O)(=O)N3CCCC3)cc2)c1,inactive: -11.4%
3,CC(C)N(CCO)C(=O)CCc1nnc(Cc2cccc(C(F)(F)F)c2)o1,inactive: 6.26%
4,COC(=O)c1cc(Br)c(=O)n(Cc2ccc(C(=O)O)cc2)c1,inactive: -7.46%
5,COc1ccc(NS(=O)(=O)c2ccc(O)c([N+](=O)[O-])c2)cc1S(=O)(=O)N1CCCCC1,inactive: 16.2%
6,Cc1ccc(C(C(=O)NCc2ccco2)N(C(=O)CNC(=O)c2cccs2)c2c(C)cccc2C)cc1 (stereo unspecified),inactive: -6.5%
7,COc1cc(Br)c(CC(=O)NNC(=O)c2ccc(F)cc2)cc1OC,inactive: 15.3%
8,O=C(COc1cccnc1[N+](=O)[O-])N1N=C(c2ccc(Cl)cc2)CC1c1ccco1 (stereo unspecified),inactive: 1.98%
9,COc1ccc(CNC(=O)Cn2cc(C(F)(F)F)ccc2=O)cc1OC,inactive: 6.6%
10,CC(OC(=O)C1CC1)C(=O)Nc1cc(Cl)cc(Cl)c1 (stereo unspecified),inactive: 19%
11,O=C(NNc1cc(C(F)(F)F)ccc1Cl)c1ccc(=O)[nH]c1,inactive: 5.24%
12,O=C(CC(=O)NC1CCCCC1)N/N=C/c1ccccc1[N+](=O)[O-],inactive: -2.84%
13,CC(=O)NC(Cc1ccc(C(C)C)cc1)C(=O)NC1CCN(C(=O)c2cccc(C)c2)CC1 (stereo unspecified),inactive: 14.4%
14,COc1ccc(C(=O)C[n+]2ccc(C)cc2)cc1,inactive: 25.9%
15,Cc1ccc(N2CC(C(=O)N3CCN(c4ccccn4)CC3)CC2=O)cc1 (stereo unspecified),inactive: -7.13%
16,COc1cc(/C=C/C(=O)O)cc(S(=O)(=O)Nc2ccccc2C(=O)NCc2ccco2)c1OC,inactive: -16.7%
17,COc1cc(NC(=NS(=O)(=O)c2ccccc2)c2ccccc2)ncn1,inactive: 6.51%
18,CCc1ccc(S(=O)(=O)NCCc2cn3ccccc3n2)s1,inactive: -13.1%
19,Cc1ccccc1NC(=O)Cn1c(=O)n(CCCCCC(=O)NCc2ccc3c(c2)OCO3)c(=O)c2sccc21,inactive: 4.35%
20,COc1ccccc1C(=O)NCC(=O)N/N=C/c1cn[nH]c1-c1ccccc1,inactive: 8.69%
21,Cc1ccc(S(=O)(=O)NCCCCCC(=O)NC(C)(C)CO)cc1,inactive: 3.49%
22,CC(=O)Nc1ccc(SCC(=O)O)cc1,inactive: -1.38%

row,SMILES,growth rescue (activation)
1,O=S(=O)(Nc1nc2ccccc2nc1Cl)c1ccccc1C(F)(F)F,inactive: 7.54%
2,O=C(NCC(c1cccnc1)N1CCN(c2ccc(F)cc2)CC1)c1ccc(F)cc1 (stereo unspecified),inactive: -29.2%
3,O=C(/C=C/c1cccc([N+](=O)[O-])c1)n1cnc2ccccc21,inactive: -11.3%
4,CC(/C=C1\SC(=S)N(C(C(=O)O)C(C)C)C1=O)=C\c1ccccc1 (stereo unspecified),inactive: -91.1%
5,COc1cc(/C=N/Nc2ccc3ccccc3c2)ccc1OC(=O)c1ccco1,inactive: 9.97%
6,O=C(N/C(=C\c1cccs1)C(=O)N1CCOCC1)c1cccs1,inactive: -4.76%
7,O=C(CSc1ccc([N+](=O)[O-])cn1)Nc1ccc2c(c1)OCO2,inactive: 22.7%
8,CCn1c(=N)n(CC(=O)c2cccc([N+](=O)[O-])c2)c2ccccc21,inactive: 18.9%
9,CC(C)CN(C(=O)CSc1nc(N)cc(N)n1)C1CCS(=O)(=O)C1 (stereo unspecified),inactive: 1.57%
10,COc1cccc(Nc2nc(C(N)CO)cs2)n1 (stereo unspecified),inactive: 0.635%
11,O=C(NCc1ccccn1)C(=O)Nc1nc(-c2ccccc2)cs1,inactive: 12.2%
12,Cc1ccc(S(=O)(=O)N2CCN(CC(=O)N/N=C\c3ccc(Cl)c([N+](=O)[O-])c3)CC2)cc1,inactive: 9.81%
13,CCCC(C)NC(=O)c1sc2nc3n(c(=O)c2c1C)CCC3 (stereo unspecified),inactive: 9.98%
14,Cc1cc(C)n(-c2nc(NCCN(C)C)c3c4c(sc3n2)CCCC4)n1,inactive: -16.2%
15,Cc1cccc(-n2nc3c([n+]2[O-])CCc2nonc2-3)c1C,inactive: 2.15%
16,OC1CCC(NC(=S)Nc2ccc(SC(F)F)cc2)CC1 (stereo unspecified),inactive: 8.57%
17,O=C(Nc1ccccc1Cl)c1sccc1-c1ccccc1,inactive: 19.8%
18,c1ccc(Cc2cc[n+](Cc3ccccn3)cc2)cc1,inactive: 1.67%
19,O=C(Nc1c(C(=O)N2CCOCC2)cnn1-c1ccccc1)c1cccc(F)c1,inactive: 11.1%
20,CCOc1ccccc1NC(=O)NCc1ccccc1,inactive: 19.1%
21,Fc1ccc(Nc2nc(NCc3ccccc3)nc3ccsc23)cc1,inactive: 13%
22,COc1cc2c(cc1OC)C(c1ccc(C(F)(F)F)cc1)CC(=O)N2 (stereo unspecified),inactive: 5.28%

row,SMILES,growth rescue (activation)
1,CCOc1ccccc1N(C)S(=O)(=O)c1ccc2[nH]cc(C(=O)N(CCOC)CCOC)c(=O)c2c1,inactive: 2.66%
2,O=C(O)/C(=C/c1ccc(Cl)c([N+](=O)[O-])c1)c1ccc(S(=O)(=O)N2CCCCC2)s1,inactive: 11%
3,CCOc1ccccc1N(CC)C(=O)c1ccc2c(=O)n3c(nc2c1)CCCCC3,inactive: 15.6%
4,COc1ccc(NC(=S)N(CCCN2CCOCC2)C(C)c2cc3cccc(OC)c3o2)cc1 (stereo unspecified),inactive: 14.4%
5,N=c1occ(C(=O)c2cc(F)ccc2O)cc1C(=O)NC1CCCCC1,inactive: -1.37%
6,Cc1ccc(NC(=O)COC(=O)C2C3CC4OC(=O)C2C4C3)cc1 (stereo unspecified),inactive: -3.18%
7,Cc1ccc(S(=O)(=O)N(C)CC(=O)Nc2cccnc2)cc1,inactive: 2.98%
8,O=C(COC(=O)c1cccc(Cl)c1)NCc1ccccc1,inactive: 6.34%
9,CC(C)CNC(=O)COC(=O)c1ccc(Cl)c(S(=O)(=O)N2CCc3ccccc32)c1,inactive: 5.1%
10,O=c1[nH]c(SCCN2CCOCC2)nc(O)c1-c1ccccc1,inactive: -3.02%
11,CNc1cccc(-c2c(OC)cccc2OC)n1,inactive: 5.95%
12,O=c1c2[nH]c3ccc(Cl)cc3c2ncn1CCN1CCCCC1,inactive: 26.3%
13,Cn1c(Cc2ccc3c(c2)OCO3)nnc1SCC(=O)NC(C)(C)C,inactive: 10%
14,O=C(CCC1CCCC1)NNC(=O)c1cc2ccccc2cc1O,inactive: 9.54%
15,S=C(NCc1ccc(Cl)cc1)NC1CCN(Cc2ccccc2)CC1,inactive: -4.29%
16,O=C(NCC1CCCO1)c1ccc(N2C(=O)C3CCCCC3C2=O)cc1 (stereo unspecified),inactive: 17.7%
17,CCOC(=O)N1CCN(C(=O)C2CCCN(S(=O)(=O)c3c(C)cc(C)cc3C)C2)CC1 (stereo unspecified),inactive: 21.1%
18,Cc1ccc(F)cc1C(=O)N1CCC1(C)C(=O)O (stereo unspecified),inactive: 8.71%
19,Cc1ccc(C)c2[nH]c(=O)c(CN(CC3CCCO3)C(=S)NCc3ccco3)cc12 (stereo unspecified),inactive: 12.9%
20,CN(C)S(=O)(=O)c1cccc(C(=O)Nc2ccccc2N2CCCCC2)c1,inactive: 27.6%
21,Cc1cc(C(=O)N/N=C/c2ccc([N+](=O)[O-])s2)n[nH]1,inactive: 12.4%
22,CCCN1CCc2c(sc3nc(SCC)n(-c4ccc(OC)cc4)c(=O)c23)C1,inactive: 6.72%

row,SMILES,growth rescue (activation)
1,COc1cc2[nH]c(C(=O)NCCc3ccccc3)cc2c(OC)c1OC,inactive: 29.6%
2,O=C(O)CC(NS(=O)(=O)c1c(F)cc(F)cc1Br)c1ccccc1Cl (stereo unspecified),inactive: 31%
3,CCc1nc2ccc(C(=O)NCc3cccs3)cn2c1N(CCC(C)C)CCN(C)C,inactive: -7.43%
4,CCOCC(=O)Nc1cc([N+](=O)[O-])ccc1OC,inactive: 10.6%
5,CC1CCC2(CC1)NC(=O)N(Cc1cc(=O)n3ccsc3n1)C2=O (stereo unspecified),inactive: 2.97%
6,O=C(NNc1nc2ccccc2o1)c1ccccc1,inactive: 4.28%
7,COc1ccc(C(OCC(O)CNC(C)c2ccccc2)c2ccc(OC)cc2)cc1 (stereo unspecified),inactive: -2.16%
8,COC(=O)c1c(NC(=O)c2cccc(OC)c2)sc2c1CCC(C(C)(C)C)C2 (stereo unspecified),inactive: -6.94%
9,CCOC(=O)N1CCN(C(=O)CSCc2ccccc2)CC1,inactive: 22%
10,N#CNC1=NCN(CCc2ccccc2)CN1,inactive: 2.13%
11,CC(O)(c1ccccc1)c1nc(-c2ccncc2)cs1 (stereo unspecified),inactive: -7.76%
12,CC1(C(=O)NS(=O)(=O)C2CC2)CCCN(C(=O)/C=C/c2ccccc2)C1 (stereo unspecified),inactive: -0.344%
13,O=C(Nc1cccc(NC(=O)c2ccco2)c1)c1ccc2c(c1)OCCO2,inactive: 7.64%
14,CCc1nc2ccc(C(=O)N3CCN(S(=O)(=O)CC)CC3)cn2c1N(C)C(=O)C1CCCCC1,inactive: -5.79%
15,COc1ccc(Cl)cc1-c1cc(C(=O)Nc2ccc(C(C)(C)C)cc2)[nH]n1,inactive: 14.6%
16,COCc1cc(C)nc(SCc2nc3ccccc3c(=O)[nH]2)c1C#N,inactive: 13.3%
17,CCN(CC)S(=O)(=O)c1ccc(S(=O)(=O)N2CCC(N3CCCCC3)CC2)cc1,inactive: -0.0384%
18,Cc1ccc2nsnc2c1NC(=O)c1cncc(Br)c1,inactive: -6.5%
